Test results from the supplement of paper PMC12217912.
Some of the results follow. Sequences were assembled here from the parent chain. Inactive controls read about 0.05.

B1: TEV protease; numbered along this chain (parent)
chain: MGESLFKGPRDYNPISSSICHLTNESDGHTTSLYGIGFGPFIITNKHLFRRNNGTLVVQSLHGVFKVKDTTTLQQHLVDGRDMIIIRMPKDFPPFPQKLKFREPQREERICLVTTNFQTKSMSSMVSDTSCTFPSGDGIFWKHWIQTKDGQCGSPLVSTRDGFIVGIHSASNFTNTNNYFTSVPKNFMELLTNQEAQQWVSGWRLNADSVLWGGHKVFMVKPEEPFQPVKEATQL

Variants of: B1
Assay: raw area under fraction-flipped curve 0-4 h after induction (AUC4h, not background-subtracted), DNA-recorder readout of cleavage of the substrate (dimensionless); higher = more cleavage of the substrate by the protease variant
Settings: temperature: 34 °C; time window: 0-4 h after rhamnose induction
Protocol: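 In vivo DNA recorder in E. coli TOP10(DE3) ΔrhaA at 34 °C. Each TEVp single-site mutant (parent TEVp 0) is paired with a single-site variant of the 7-mer TEVs (canonical ENLYFQ|S). The substrate sits between flexible linkers in a Bxb1-sfGFP-TEVs-SsrA fusion, so cleavage stabilises Bxb1 and speeds flipping of a recombination array, read by NGS. The value is the raw area under the fraction-flipped curve over 0-4 h after rhamnose induction (AUC4h), with ≥20 reads per time point. It is not background-subtracted; inactive controls average about 0.047.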
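Note: Bxb1 expression induced with 0.2% (w/v) L-rhamnose at OD600 near 0.5, cultures sampled hourly, flipped fraction per protease–substrate barcode pair counted by paired-end Illumina sequencing.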

| Variant | area with substrate ECLYFQS | area with substrate EGLYFQS | area with substrate EKLYFQS | area with substrate EMLYFQS | area with substrate ERLYFQS | area with substrate ETLYFQS | area with substrate EYLYFQS | area with substrate EELYFQS | area with substrate EQLYFQS | area with substrate ESLYFQS | area with substrate EVLYFQS | area with substrate EWLYFQS | area with substrate EDLYFQS | area with substrate EFLYFQS | area with substrate EHLYFQS | area with substrate EILYFQS | area with substrate ELLYFQS | area with substrate EPLYFQS |
| --- | --- | --- | --- | --- | --- | --- | --- | --- | --- | --- | --- | --- | --- | --- | --- | --- | --- | --- |
| D79A | 0.0913 | 0.0832 | 0.0839 | 0.106 | 0.0848 | 0.0953 | 0.0675 |  |  |  |  |  |  |  |  |  |  |  |
| D79H | 0.118 | 0.0972 | 0.105 |  |  |  |  | 0.0813 | 0.143 | 0.124 | 0.089 | 0.0914 |  |  |  |  |  |  |
| R81F | 0.0989 | 0.077 | 0.086 | 0.0734 | 0.0954 | 0.1 |  | 0.0823 | 0.097 | 0.0953 | 0.0701 | 0.0999 | 0.0935 | 0.0835 | 0.102 | 0.105 | 0.0829 | 0.0846 |
| R81M | 0.09 |  |  | 0.0935 | 0.0924 | 0.119 | 0.0962 | 0.105 | 0.0885 | 0.0936 | 0.0863 |  | 0.0671 |  | 0.102 | 0.0856 |  | 0.11 |
| D82R | 0.0407 |  |  |  |  | 0.0497 |  | 0.0646 |  |  | 0.0526 |  | 0.0376 |  |  |  |  |  |
| M83C | 0.072 | 0.0842 | 0.068 |  | 0.0862 | 0.103 | 0.0828 |  | 0.0948 | 0.0916 | 0.0957 | 0.0869 | 0.0801 | 0.0773 |  | 0.101 | 0.0747 |  |
| M83G | 0.0456 | 0.0543 | 0.0578 |  | 0.0378 | 0.0546 | 0.0555 |  | 0.0509 | 0.0597 | 0.054 |  | 0.0671 |  | 0.0469 | 0.0495 | 0.0524 |  |
| M83K | 0.0533 |  |  | 0.0647 | 0.0411 |  |  |  |  | 0.0631 | 0.0857 | 0.0269 | 0.0688 |  | 0.0557 |  | 0.0569 | 0.0606 |
| I84F | 0.0602 | 0.0545 | 0.059 | 0.0779 | 0.0596 |  | 0.0845 | 0.0629 | 0.0589 | 0.0658 |  | 0.0642 |  |  |  | 0.0404 | 0.0524 | 0.0693 |
| I86W | 0.0739 |  | 0.0751 |  | 0.0733 |  | 0.0772 | 0.0778 | 0.0706 | 0.0679 | 0.0647 | 0.0707 |  |  |  | 0.0604 | 0.0384 | 0.0762 |
| P89H | 0.0957 |  | 0.0925 | 0.131 |  |  | 0.108 |  | 0.0632 |  | 0.0807 |  |  |  |  | 0.0928 |  |  |
| D91F | 0.092 | 0.094 | 0.1 | 0.0891 |  | 0.0889 | 0.0931 | 0.078 | 0.104 | 0.0858 | 0.0721 | 0.0912 | 0.0781 |  | 0.0942 | 0.0909 |  | 0.111 |
| D91Q | 0.117 |  |  |  |  |  |  |  | 0.117 | 0.131 | 0.0795 |  |  |  |  | 0.0945 |  |  |
| D91W | 0.0868 | 0.0915 | 0.0843 | 0.121 | 0.0823 | 0.0868 | 0.0857 | 0.123 | 0.107 | 0.111 | 0.0718 | 0.104 |  | 0.114 | 0.12 | 0.15 | 0.096 | 0.114 |
| P93A | 0.103 | 0.103 |  | 0.144 |  |  |  |  | 0.133 | 0.107 | 0.108 |  | 0.117 |  | 0.113 | 0.0865 | 0.105 | 0.103 |
| K98G | 0.143 | 0.101 | 0.104 |  | 0.0907 |  |  |  | 0.116 | 0.109 |  | 0.0896 |  |  | 0.0871 | 0.122 | 0.0858 |  |
| K98M | 0.115 |  | 0.114 |  | 0.162 | 0.111 |  | 0.102 | 0.106 | 0.0985 | 0.0973 | 0.109 |  | 0.101 |  | 0.1 | 0.0964 | 0.146 |
| K98T | 0.117 | 0.0785 | 0.135 | 0.119 | 0.103 | 0.11 |  | 0.119 | 0.102 | 0.118 | 0.0796 | 0.0951 | 0.117 | 0.0732 | 0.0784 | 0.119 |  | 0.161 |
| L99P | 0.114 | 0.0754 | 0.0827 | 0.0835 | 0.0943 | 0.124 | 0.101 | 0.139 | 0.124 | 0.0963 | 0.0837 |  | 0.129 | 0.0938 |  | 0.0529 | 0.109 |  |
| K100F | 0.103 | 0.0901 |  | 0.0973 |  | 0.109 |  | 0.12 | 0.106 |  | 0.105 | 0.106 | 0.128 |  |  | 0.0689 |  |  |
| K100H | 0.113 |  | 0.102 | 0.112 | 0.109 |  | 0.0992 | 0.11 | 0.122 | 0.0972 | 0.0572 | 0.101 |  | 0.0857 | 0.107 | 0.0988 |  |  |
| K100I | 0.0715 | 0.0785 |  | 0.0993 | 0.127 |  | 0.0999 | 0.127 |  | 0.0972 | 0.108 |  |  | 0.115 | 0.132 |  | 0.0848 |  |
| E103H | 0.0891 | 0.0814 | 0.0489 | 0.108 |  | 0.0986 |  | 0.109 | 0.107 | 0.0795 | 0.102 | 0.0909 | 0.103 | 0.0845 |  |  |  | 0.0782 |
| E103V | 0.0829 |  | 0.11 | 0.107 | 0.102 |  |  | 0.102 | 0.11 | 0.0966 |  | 0.092 | 0.108 |  |  | 0.088 | 0.0856 | 0.0841 |
| Q105Y | 0.0983 |  |  | 0.101 |  |  |  | 0.117 |  |  | 0.0933 | 0.0907 | 0.14 | 0.0728 | 0.0934 | 0.102 | 0.106 | 0.0941 |
| R106T | 0.114 | 0.108 | 0.0999 | 0.0875 | 0.108 | 0.0941 |  |  | 0.148 | 0.101 | 0.112 |  | 0.118 | 0.0922 |  | 0.139 | 0.0977 |  |
| E107G | 0.089 | 0.103 | 0.0913 |  | 0.094 | 0.0937 |  | 0.0792 | 0.136 | 0.0826 |  | 0.0863 | 0.155 |  | 0.0929 |  | 0.0966 | 0.0959 |
| E108D | 0.133 |  |  |  | 0.121 |  | 0.108 |  | 0.111 | 0.109 |  |  |  |  | 0.105 | 0.0868 | 0.0804 |  |
| E108M | 0.0903 | 0.075 | 0.0859 |  | 0.0794 |  |  | 0.101 | 0.0596 | 0.0868 | 0.0836 |  |  |  |  | 0.047 | 0.0816 | 0.0806 |
| R109E | 0.0921 |  |  |  | 0.119 | 0.0852 |  | 0.0527 | 0.108 |  | 0.0969 | 0.122 | 0.0873 |  | 0.108 | 0.0779 | 0.0776 |  |
